The other results are listed elsewhere or left out. The energies were worked out here from pooled read counts, against the library average; single values are noisy.
biological target: T1, Pho4 (S. cerevisiae) (UniProt P07270); test: relative binding free energy (BET-seq); higher = weaker binding; details: reference: library average
T1 sequence: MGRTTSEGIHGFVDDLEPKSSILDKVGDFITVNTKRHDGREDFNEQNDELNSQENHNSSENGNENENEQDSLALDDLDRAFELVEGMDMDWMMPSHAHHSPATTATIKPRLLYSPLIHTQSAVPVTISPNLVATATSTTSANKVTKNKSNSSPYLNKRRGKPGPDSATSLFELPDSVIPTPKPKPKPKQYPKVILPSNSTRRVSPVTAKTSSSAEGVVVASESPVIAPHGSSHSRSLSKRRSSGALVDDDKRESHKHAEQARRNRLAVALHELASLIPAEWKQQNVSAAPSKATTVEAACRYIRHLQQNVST

Sequence | relative binding free energy
AGAATCACGTGTGGCG | 0.12 kcal/mol
CTTGTCACGTGGATTA | 0.11 kcal/mol
ATAATCACGTGTTAGG | 0.1 kcal/mol
GTGTCCACGTGTATTA | 0.15 kcal/mol
AAGGTCACGTGTTGTA | 0.19 kcal/mol
AGTGGCACGTGTTAGA | -0.14 kcal/mol
GGTACCACGTGAGGTG | 0.14 kcal/mol
ATTTTCACGTGTATGA | 0.34 kcal/mol
GTGAACACGTGGAGGG | 0.04 kcal/mol
AGGTACACGTGTTCAG | 0.14 kcal/mol
TCAGGCACGTGTGGGA | 0.09 kcal/mol
AGTGTCACGTGTCTGC | 0.19 kcal/mol
TGTCACACGTGTTTGT | 0.06 kcal/mol
TTGAACACGTGTTCGT | 0.05 kcal/mol
GTGAACACGTGGGTAA | -0.15 kcal/mol
CGGTCCACGTGGTGTA | -0.1 kcal/mol
AGTGCCACGTGTATTG | -0.06 kcal/mol
ATATACACGTGGGGTC | -0.23 kcal/mol
GGTGGCACGTGTTACT | -0.09 kcal/mol
TTTCACACGTGGAAGG | 0.15 kcal/mol
GGTTGCACGTGACATG | 0.23 kcal/mol
TTGCTCACGTGTATGG | 0.23 kcal/mol
ATGTGCACGTGATTTC | 0.2 kcal/mol
TTTTTCACGTGGTCCG | 0.21 kcal/mol
TCGAACACGTGGGTGG | -0.16 kcal/mol
TTGTACACGTGCGGAG | 0 kcal/mol

Sequence | relative binding free energy
TTAGGCACGTGGGTAG | -0.12 kcal/mol
TTATGCACGTGACGCG | 0.05 kcal/mol
TGTAGCACGTGTGGCT | 0.03 kcal/mol
GGGGGCACGTGTTATT | -0.04 kcal/mol
GGATTCACGTGTAGGA | 0.31 kcal/mol
GGTTTCACGTGGATAG | 0.34 kcal/mol
TTGTTCACGTGTCTAA | 0.17 kcal/mol
TAGGTCACGTGGATTC | 0.18 kcal/mol
CGGGTCACGTGAGTGC | 0.3 kcal/mol
ACTTGCACGTGGTAGT | -0.24 kcal/mol
TTTTTCACGTGTAGAG | 0.22 kcal/mol
TTGGCCACGTGGGTCG | -0.23 kcal/mol
CGTCACACGTGTTGGT | -0.01 kcal/mol
ATTGACACGTGGTGCT | -0.19 kcal/mol
CGTTGCACGTGTTTCT | 0.03 kcal/mol
TATGTCACGTGGAAGG | 0.05 kcal/mol
TATCTCACGTGAGGGA | 0.5 kcal/mol
CGGGTCACGTGTTTAG | 0.16 kcal/mol
GGTTCCACGTGGAGTA | 0.13 kcal/mol
TAGAGCACGTGTCTGT | 0.02 kcal/mol
GGTTACACGTGTGGTA | 0.27 kcal/mol
TTAAACACGTGTGGCG | 0 kcal/mol
GTCGTCACGTGGGTAG | 0 kcal/mol
TAGGGCACGTGCAAGT | -0.17 kcal/mol
TACAGCACGTGGGGGT | -0.29 kcal/mol
GTCGTCACGTGTAGCG | 0.13 kcal/mol

Sequence | relative binding free energy
GCGGGCACGTGGGTAT | -0.3 kcal/mol
TTTGCCACGTGTCGGG | -0.19 kcal/mol
GAGGGCACGTGCGTGG | -0.16 kcal/mol
ATGTACACGTGGTGGC | 0.1 kcal/mol
GTGGACACGTGATATT | 0.17 kcal/mol
ATTGGCACGTGTTTGC | -0.11 kcal/mol
GTTTACACGTGTGGAT | 0.16 kcal/mol
GGGGGCACGTGGGTGG | -0.11 kcal/mol
TTGTGCACGTGTTCAA | 0.02 kcal/mol
AGATGCACGTGTGATG | 0.11 kcal/mol
AAAGTCACGTGCAGTT | 0.24 kcal/mol
TAAAGCACGTGGTCTT | -0.17 kcal/mol
CGCTGCACGTGGCGGG | -0.27 kcal/mol
GGTGTCACGTGAGTAA | 0.23 kcal/mol
AGTTTCACGTGCGAGC | 0.42 kcal/mol
AGCGACACGTGGGGGT | -0.2 kcal/mol
ATTTTCACGTGGATTT | 0.31 kcal/mol
ACATGCACGTGTTGGA | 0 kcal/mol
TCTTTCACGTGGGAAG | 0.13 kcal/mol
TGTTTCACGTGTGGCT | 0.28 kcal/mol
TGATGCACGTGACTTG | 0.04 kcal/mol
GTTGGCACGTGGCTGA | -0.18 kcal/mol
TGAGACACGTGGATTA | 0.12 kcal/mol
CATAGCACGTGGTGAG | -0.11 kcal/mol
TGTCACACGTGTTGTC | 0.05 kcal/mol
GGATCCACGTGATGGT | 0.11 kcal/mol

Sequence | relative binding free energy
GATAACACGTGGGGAT | -0.15 kcal/mol
TAGAACACGTGGTATT | -0.05 kcal/mol
AATATCACGTGCGGTT | 0.23 kcal/mol
TTAATCACGTGGTATT | 0.07 kcal/mol
AAGGACACGTGTTGTG | 0.09 kcal/mol
AAGCTCACGTGAGTTG | 0.44 kcal/mol
GTTAACACGTGTAGTC | 0.25 kcal/mol
TGCGACACGTGGATGT | 0.08 kcal/mol
GCTCGCACGTGGTTTG | -0.1 kcal/mol
AGCTACACGTGGGGTA | -0.09 kcal/mol
TGAGGCACGTGTCTGA | 0.06 kcal/mol
GGGGCCACGTGAGCGG | 0.11 kcal/mol
GGTGACACGTGTTATA | 0.03 kcal/mol
GTGAGCACGTGGGGCG | -0.19 kcal/mol
GTAATCACGTGTGGGA | 0.26 kcal/mol
ATATGCACGTGTCCGG | 0.05 kcal/mol
TGGGACACGTGTGTAT | 0.01 kcal/mol
TTGTTCACGTGTGCGA | 0.29 kcal/mol
TTGTGCACGTGTTCGT | -0.17 kcal/mol
TTATACACGTGAATAT | 0.26 kcal/mol
GGAATCACGTGTTTTA | 0.06 kcal/mol
TATGGCACGTGTCATG | 0.03 kcal/mol
ATGAACACGTGCGGGG | 0.05 kcal/mol
AGTGTCACGTGAAGGT | 0.17 kcal/mol
AGTCTCACGTGTGGTA | 0.31 kcal/mol
GGTATCACGTGAGCTT | 0.38 kcal/mol

Sequence | relative binding free energy
ACAGGCACGTGTGTTT | -0.26 kcal/mol
GTGATCACGTGTTGGC | 0.09 kcal/mol
GTGTACACGTGTTCGG | 0.03 kcal/mol
ATAGTCACGTGTAGGT | 0.08 kcal/mol
TTGTGCACGTGAGGTG | 0.32 kcal/mol
TATAACACGTGTTCTG | -0.05 kcal/mol
TGTGTCACGTGAAGCT | 0.26 kcal/mol
AGGATCACGTGTCAGT | 0.25 kcal/mol
TGTTACACGTGATCGT | 0.11 kcal/mol
GTCAGCACGTGGAGGT | -0.06 kcal/mol
GGAGTCACGTGATGAA | 0.29 kcal/mol
ATATTCACGTGGTCTG | 0.15 kcal/mol
CAGGTCACGTGATGGA | 0.38 kcal/mol
TGGTACACGTGTTGGT | 0.09 kcal/mol
AATTGCACGTGTTATA | -0.05 kcal/mol
GACTTCACGTGATGTG | 0.39 kcal/mol
TGGGGCACGTGCATGT | -0.19 kcal/mol
GATTACACGTGTTTAA | 0.17 kcal/mol
GGAGGCACGTGGTATC | -0.19 kcal/mol
TAGAGCACGTGGAATT | 0.14 kcal/mol
TGGACCACGTGAGTGT | 0.22 kcal/mol
ATGTACACGTGCTTGG | -0.08 kcal/mol
CTTTTCACGTGATGTT | 0.28 kcal/mol
GAGATCACGTGGGTGG | 0.06 kcal/mol
TTTTACACGTGTAGAT | 0.23 kcal/mol
TGTGCCACGTGTAGCG | 0 kcal/mol

Sequence | relative binding free energy
TTATTCACGTGAGTCA | 0.44 kcal/mol
TGTAGCACGTGTGCTA | -0.15 kcal/mol
GAGCTCACGTGAGTGG | 0.35 kcal/mol
AGCTACACGTGGTAGG | 0.08 kcal/mol
TTGGACACGTGTGTGT | 0.13 kcal/mol
ACAGGCACGTGGCGGT | -0.27 kcal/mol
AGGGACACGTGGTTAG | -0.07 kcal/mol
AGGGACACGTGGTAAA | 0.09 kcal/mol
TTTAGCACGTGGGACT | -0.13 kcal/mol
AGGGGCACGTGGTAAT | -0.04 kcal/mol
ATAGGCACGTGGTTGC | -0.21 kcal/mol
GTGGTCACGTGGCTAG | 0.05 kcal/mol
GGGTGCACGTGCTGAT | 0 kcal/mol
TATAACACGTGTGGAG | -0.01 kcal/mol
TATGTCACGTGTCTGT | 0.18 kcal/mol
AAGGTCACGTGGCGGC | 0.14 kcal/mol
GTAGGCACGTGGCCTT | -0.07 kcal/mol
ATTGACACGTGTTATT | 0.02 kcal/mol
GTCGACACGTGGAGTG | -0.01 kcal/mol
AAAGGCACGTGGGAGA | -0.08 kcal/mol
TTGGCCACGTGTAGTT | -0.03 kcal/mol
GGTCTCACGTGGAATT | 0.39 kcal/mol
GTTAGCACGTGGGCTT | -0.11 kcal/mol
TTGTTCACGTGGACGG | 0.28 kcal/mol
GGGTGCACGTGGGGTA | -0.12 kcal/mol
TGGCGCACGTGTTAAT | -0.02 kcal/mol

Sequence | relative binding free energy
TCTATCACGTGTTCGT | 0.07 kcal/mol
GGGTTCACGTGGGCCA | 0.23 kcal/mol
GTTTGCACGTGTAAAT | 0.25 kcal/mol
TGGAGCACGTGAGGAA | 0.23 kcal/mol
ATTCTCACGTGTGATT | 0.23 kcal/mol
GGAATCACGTGGTTTT | 0.22 kcal/mol
TTTGTCACGTGGGCGC | 0.01 kcal/mol
TTATCCACGTGTGATT | 0.11 kcal/mol
TAGTTCACGTGAGGTA | 0.29 kcal/mol
ATAGGCACGTGTTGGT | -0.09 kcal/mol
GAGGGCACGTGAATTT | 0.17 kcal/mol
TTAGACACGTGTTTTG | 0.08 kcal/mol
GGCTACACGTGTGTTG | 0.07 kcal/mol
GTGAGCACGTGTTATT | -0.08 kcal/mol
AGGAGCACGTGGAAGT | 0.01 kcal/mol
AATGTCACGTGTTTTC | 0.04 kcal/mol
TGGGGCACGTGATGAG | -0.07 kcal/mol
AAGGGCACGTGCGATG | -0.09 kcal/mol
CGGAGCACGTGGTGAG | -0.02 kcal/mol
TGTGTCACGTGTTATG | 0.02 kcal/mol
GATCTCACGTGCGGGG | 0.24 kcal/mol
AGAGTCACGTGAAGTG | 0.37 kcal/mol
GGTTACACGTGCAGTA | 0.14 kcal/mol
AATTACACGTGGGGGC | 0.06 kcal/mol
TGTTGCACGTGAAGAT | 0.21 kcal/mol
TTAGTCACGTGGCTGT | -0.01 kcal/mol

Sequence | relative binding free energy
TGCTTCACGTGTATTG | 0.2 kcal/mol
GTCAGCACGTGTGTGA | -0.03 kcal/mol
AGTTTCACGTGGGTGC | 0.18 kcal/mol
AGGCGCACGTGTTTTT | -0.07 kcal/mol
TTGAGCACGTGAGACT | 0.13 kcal/mol
AGGCTCACGTGGCGGT | 0.21 kcal/mol
TTCTTCACGTGCTGAG | 0.47 kcal/mol
AGGTTCACGTGAAGGT | 0.29 kcal/mol
TTGGACACGTGCATTT | 0.06 kcal/mol
GTTGTCACGTGAGTTG | 0.47 kcal/mol
GTAGGCACGTGGTTCG | -0.14 kcal/mol
TGTGTCACGTGGACAT | -0.02 kcal/mol
TGGGGCACGTGCGATT | -0.17 kcal/mol
TATTTCACGTGCATTT | 0.18 kcal/mol
AGTGGCACGTGTGTCC | -0.12 kcal/mol
GGAGCCACGTGTTGAG | 0.21 kcal/mol
GAGGTCACGTGGTGAG | 0.21 kcal/mol
GGTTCCACGTGTGATA | 0.18 kcal/mol
ATCAACACGTGTGTGG | -0.04 kcal/mol
GAGGGCACGTGAATGT | 0.11 kcal/mol
GGGGGCACGTGCAAGG | -0.12 kcal/mol
GGGCACACGTGTGGTA | 0.02 kcal/mol
ACGTTCACGTGTAAGG | 0.25 kcal/mol
GTATACACGTGAGTGC | 0.35 kcal/mol
TCAGACACGTGAGGTG | 0.1 kcal/mol
ATTTTCACGTGACGCT | 0.45 kcal/mol

Sequence | relative binding free energy
TGTTACACGTGGTTAC | 0.01 kcal/mol
TTTAGCACGTGTATGT | -0.11 kcal/mol
CAAAGCACGTGGTTTG | -0.03 kcal/mol
GTACTCACGTGTGAAT | 0.36 kcal/mol
ATAGGCACGTGTTTGC | -0.25 kcal/mol
TATGGCACGTGTGTAA | 0.07 kcal/mol
GAGGTCACGTGCATGG | 0.19 kcal/mol
CTGTTCACGTGGGTAT | 0.13 kcal/mol
CTCTGCACGTGGTGTG | -0.19 kcal/mol
ATGGCCACGTGGGGAG | -0.18 kcal/mol
ACGTTCACGTGTTATG | 0.22 kcal/mol
TAACGCACGTGGGATT | -0.21 kcal/mol
AATCGCACGTGGTATT | -0.09 kcal/mol
GGGGGCACGTGACGCG | 0.01 kcal/mol
TTGAGCACGTGGGTCA | -0.29 kcal/mol
TGAGACACGTGAGTGT | 0.19 kcal/mol
CAGGACACGTGTTATG | 0.08 kcal/mol
CTCGGCACGTGTGGAG | -0.03 kcal/mol
TTGTTCACGTGGAAAA | 0.19 kcal/mol
TAAGTCACGTGCTGAG | 0.11 kcal/mol
GTTTACACGTGTCTAG | 0.11 kcal/mol
TATTGCACGTGATTCG | 0.01 kcal/mol

— the BET-seq Pho4 binding data (Le et al. 2018)
